The text below walks through data of ChEMBL document CHEMBL4888484, “Replenishing the malaria drug discovery pipeline: Screening and hit evaluation of the MMV Hit Generation Library 1 (HGL1) against asexual blood stage Plasmodium falciparum ,using a nano luciferase reporter read-out” (2022).

In all, about 150,000 compounds went through this assay and about 540 (0.36%) showed an effect of 50% or more. Some of the results follow.

Broadly, the % Inhibition is the change of the read-out against control, counted positive when it falls.

In this assay the test system is Plasmodium falciparum. The assay can be described thus: Primary screen in NF54 nanoGlo assay, in single point, at 2uM, 72h; a lower Z score goes with more inhibition. It counts as functional, Erythrocyte. As to conditions: timepoint 72 hour.
Regarding `COCCc1noc(CCc2scnc2C)n1`, the “% Inhibition” value is -5% and the Z score turned out to be 0.66.
As to `Cc1c(CNC2CCC(C)CC2)c(C(=O)O)c(C)n1Cc1ccccc1Cl` (centres undefined), the “% Inhibition” value is -4% and the Z score is 0.51.
In the case of `C#CCN(CC)C(=O)c1ncoc1C(C)C`, the “% Inhibition” value is on record as -39% and the Z score was 4.58.
For `Cc1nc(C)c(Cc2ccc(Cl)cc2)c(N2CCN(S(=O)(=O)c3ccc(Cl)cc3)CC2)n1`, the “% Inhibition” value is -9% and the Z score is 1.23.
Regarding `CCCCN(C)c1ccc(S(C)(=O)=O)cc1S(=O)(=O)N(C)C`, the “% Inhibition” value is 13% and the Z score is listed as -1.82.
For the compound `O=C(CCc1cc(Br)ccc1OC(F)F)N1CC[C@H](N2C(=O)CNC2=O)C1`, the “% Inhibition” value is -2% and the Z score is 0.38.
For the compound `CC(=O)N1CC(c2nc(CCOc3cccc(C)c3)no2)C1`, the “% Inhibition” value is -5% and the Z score is 0.67.
For `Cn1cc(CN2CC[C@]3(CNC(=O)C3)C2)c(C(F)F)n1`, the “% Inhibition” value is recorded as -8% and the Z score is recorded as 1.09.
In the case of `O=C(NCCc1ccc2c(c1)OCCO2)NCCc1c[nH]c2ccccc12`, the “% Inhibition” value is recorded as -9% and the Z score was 1.4.
For `Cc1ccc(S(=O)(=O)N2CCN(C(=O)COc3ccccc3)[C@@H]2c2ccccc2)cc1` the same measures were -4% and 0.45.
For the compound `O=C(Nc1cccc(N2CCCC2=O)c1)c1ccc(-n2cnnn2)cc1`, the “% Inhibition” value is given as -19% and the Z score stood at 2.52.
For the compound `O=S(=O)(c1ccc2c(c1)CCC2)N1CCC[C@H](CCc2noc(-c3ccccn3)n2)C1`, the “% Inhibition” value was determined as 2% and the Z score was -0.37.
As to `CC1(C)c2[nH]c3ccccc3c2C[C@H]2C(=O)N(Cc3ccncc3)CC(=O)N21`, the “% Inhibition” value is -9% and the Z score turned out to be 1.22.
With `Cc1ccc2nc(CN3CCN(c4ncc[nH]c4=O)CC3)cn2c1`, the “% Inhibition” value is recorded as -5% and the Z score is reported as 1.05.
For `COCC(C)(C)C(=O)Nc1ncccc1O`, the “% Inhibition” value is -12% and the Z score came to 1.65.
For `FC(F)(F)Oc1ccc(Cn2ccnc2-c2cccnc2)cc1`, the “% Inhibition” value stood at 0% and the Z score was 0.04.
For `O=C(NS(=O)(=O)C[C@H]1CCOC1)c1cc(C2CCCCC2)n[nH]1` the same measures were -5% and 0.68.
With `O=C(Nc1ccc(Oc2ccccc2)cc1)C1CCN(S(=O)(=O)Cc2ccccc2Cl)CC1`, the “% Inhibition” value is reported as -6% and the Z score was 1.19.
Turning to `C[C@@H](NC(=O)c1ccccc1)c1onc(-c2cccnc2)c1C(=O)O`, the “% Inhibition” value amounted to 14% and the Z score is recorded as -1.61.
With `CCN1C[C@@H](CN(C)C(=O)c2cn(C/C=C/c3ccccc3)nn2)CC1=O`, the “% Inhibition” value is on record as -4% and the Z score is listed as 0.44.
`Fc1cccc(-c2nccn2CCCc2ccncc2)c1F`: the “% Inhibition” value is -7% and the Z score was 0.92.
Turning to `CC[C@H](NCc1ccccc1OCCO)c1nc(C)c(C)s1`, the “% Inhibition” value was 7% and the Z score was -1.47.
For the compound `COc1cc(C)c(S(=O)(=O)N(Cc2ccccn2)C2CC2)c(C)c1`, the “% Inhibition” value is given as -2% and the Z score is listed as 0.4.
Turning to `COc1ccc(-c2cn3nc4c(nc3n2)CCCC4)cc1`, the “% Inhibition” value came to 9% and the Z score is recorded as -1.01.
Regarding `O=C(NCCn1nc(C(F)(F)F)cc1C1CC1)c1cccnc1`, the “% Inhibition” value is given as -13% and the Z score turned out to be 1.72.
For the compound `CCOCCN1C[C@]23C=C[C@H](O2)C(C(=O)N2CCC(F)(F)CC2)C3C1=O` (some centres undefined), the “% Inhibition” value was -9% and the Z score is listed as 1.86.
Consider `CCOCCC(=O)Nc1nn(-c2ccc(F)cc2)c2cccc(N3CCOC3=O)c12`, for which the “% Inhibition” value is listed as -23% and the Z score stood at 2.13.
Take `CC[C@@](C)(CCNC(=O)N1CCS(=O)(=O)CC1)c1ccccc1OC`: the “% Inhibition” value came out at 2% and the Z score was -0.31.
For `Cc1noc(COc2ccc(CCO)cc2-n2nc3ccccc3n2)n1`, the “% Inhibition” value is on record as -12% and the Z score is on record as 1.25.
The matching figures for `CCN(Cc1nc2cc(Cl)ccc2c(=O)[nH]1)C(=O)CCc1ccccc1F`: -4% and 0.3.
As to `Cc1nccn1C1CN(C(=O)c2cccs2)C1`, the “% Inhibition” value was found to be 8% and the Z score is -1.28.
Turning to `CC(C)c1noc(C(C)N2CCC(OCCN3CCCCC3)C2)n1` (centres undefined), the “% Inhibition” value is on record as -14% and the Z score was 1.39.
For the compound `CCc1cc(C(=O)NC[C@H]2CCC[C@@H](CO)C2)oc1CC`, the “% Inhibition” value was -44% and the Z score is recorded as 5.12.
The matching figures for `Cc1cccc(N2CCN(S(=O)(=O)c3cc(-c4nc(C)c(C)s4)cs3)CC2)c1`: -8% and 1.12.
On to `N[C@H]1CN(C(=O)c2ccnc(-c3ccccn3)n2)CC12CCC2`, for which the “% Inhibition” value is -3% and the Z score stood at 0.41.
Turning to `Cc1ccc(CN(C(N)=O)[C@H]2CCc3ccccc32)cc1`, the “% Inhibition” value is on record as -9% and the Z score was 1.75.
For `O=C1N(Cc2cc(Cl)ccc2F)c2ccccc2NC12CCNCC2` the same measures were -11% and 2.19.
On to `O=C(c1ccc(N2CCCCS2(=O)=O)cc1)N1CCN(C(=O)c2ccco2)CC1`, for which the “% Inhibition” value was 8% and the Z score is reported as -1.03.
As for `Cc1ccc(CN2CC[C@H](CNC(=O)C3CCN(c4nc5ccc(C)cc5[nH]4)CC3)C2)cc1`, the “% Inhibition” value is -3% and the Z score is 0.45.
`O=C1CN(C2CCCCCC2)C2CS(=O)(=O)CC2N1c1ccc(Br)cc1` (centres undefined): the “% Inhibition” value is listed as -13% and the Z score stood at 1.65.
With `Cc1cccc(N2CCN(C(=O)NC[C@@H](c3ccco3)N3CCCC3)CC2)c1C`, the “% Inhibition” value amounted to 10% and the Z score is reported as -1.36.
The matching figures for `CC(=O)N[C@@H](C)C(=O)N1CCc2ccncc21`: 1% and -0.14.
`C[C@@H](C(=O)N(C)CC(C)(CO)CO)c1ccc(Br)cc1`: the “% Inhibition” value was -11% and the Z score was determined as 1.01.
For `CC(C)Cn1c(CC2(CC(=O)N[C@H]3CC[C@H](O)CC3)CCCC2)nc2cccnc21` the same measures were -7% and 0.91.
`Cc1nn(CC(=O)n2nc(C)c(Cl)c2C)c(C)c1Cl`: the “% Inhibition” value is -37% and the Z score is on record as 4.3.
In the case of `CN1C(=O)CC(CC(=O)N(C)C2CCOC2)(c2ccc(-c3ccccc3)cc2)C1=O` (centres undefined), the “% Inhibition” value is recorded as 9% and the Z score is -1.19.
For the compound `COc1cccc(CN2CCC[C@@]3(CCN(c4ncccc4C(N)=O)C3)C2)c1OC`, the “% Inhibition” value was determined as 9% and the Z score is listed as -1.1.
Turning to `O=C(NCC1(O)CCCCC1)c1ccc(-c2ccncc2F)cc1`, the “% Inhibition” value is recorded as -14% and the Z score worked out at 1.37.
Take `Cc1noc(C)c1CN1C[C@H]2CC[C@@H](C1)N(C(=O)CCc1ccccn1)C2`: the “% Inhibition” value was -12% and the Z score is given as 1.32.
As for `Cc1ccc(Cn2c(C)cc(=O)c(C(=O)N3CCN(C/C=C/c4ccccc4)CC3)c2C2CC2)o1`, the “% Inhibition” value is 3% and the Z score is listed as -0.33.
For `COc1ccccc1NC(=O)Nc1ccccc1Cc1ccccc1` the same measures were -4% and 0.69.
For `Cn1c(NC(=O)c2ccc(Cl)cc2Cl)c(-c2ccccn2)c(=O)c2ccccc21`, the “% Inhibition” value came out at 5% and the Z score is -0.65.
